What is called pIC50 is the negative decadic logarithm of the IC50, by convention in mol/L.

pIC50: −log10 of the molar value.

UniProt O14744, sequence (O14744 whole entry): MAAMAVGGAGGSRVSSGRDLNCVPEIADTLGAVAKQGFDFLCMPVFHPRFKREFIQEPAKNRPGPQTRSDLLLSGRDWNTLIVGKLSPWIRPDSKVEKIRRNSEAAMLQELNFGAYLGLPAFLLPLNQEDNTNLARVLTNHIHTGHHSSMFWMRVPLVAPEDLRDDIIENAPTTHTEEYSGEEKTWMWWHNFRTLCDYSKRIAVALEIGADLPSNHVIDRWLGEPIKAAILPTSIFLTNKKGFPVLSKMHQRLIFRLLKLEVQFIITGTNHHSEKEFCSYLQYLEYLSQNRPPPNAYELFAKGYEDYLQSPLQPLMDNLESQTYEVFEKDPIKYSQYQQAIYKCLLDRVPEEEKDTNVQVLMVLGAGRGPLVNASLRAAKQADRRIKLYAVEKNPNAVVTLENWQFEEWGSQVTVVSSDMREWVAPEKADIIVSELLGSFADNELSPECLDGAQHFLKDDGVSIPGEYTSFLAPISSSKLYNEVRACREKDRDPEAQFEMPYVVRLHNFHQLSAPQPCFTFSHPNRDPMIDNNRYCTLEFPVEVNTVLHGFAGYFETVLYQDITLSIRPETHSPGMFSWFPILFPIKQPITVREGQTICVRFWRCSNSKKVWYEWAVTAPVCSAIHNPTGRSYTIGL
UniProt O14744, sequence (Q9BQA1 whole entry partner): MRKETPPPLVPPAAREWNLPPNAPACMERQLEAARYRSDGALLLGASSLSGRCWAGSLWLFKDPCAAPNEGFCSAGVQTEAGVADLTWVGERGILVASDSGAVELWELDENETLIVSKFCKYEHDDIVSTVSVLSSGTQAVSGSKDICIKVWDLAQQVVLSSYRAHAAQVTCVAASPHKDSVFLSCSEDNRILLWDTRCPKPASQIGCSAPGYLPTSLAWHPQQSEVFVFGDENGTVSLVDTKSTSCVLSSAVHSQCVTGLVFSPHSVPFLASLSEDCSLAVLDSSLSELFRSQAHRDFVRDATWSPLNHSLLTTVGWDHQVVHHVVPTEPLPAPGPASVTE

For the experiment, the target named is PRMT5/MEP50 Complex (Homo sapiens (Human), UniProt O14744). As to the kind of experiment: PRMT5 inhibition based on TR-FRET assay. It counts as biochemical. The following applies: 32 nM PRMT5:MEP50, 50 nM Histone-H4 peptide, 1 μM SAM. The text has this: PRMT5 Inhibition Based on TR-FRET Assay:
Protein arginine methyltransferase 5 (PRMT5) is a type II arginine methyltransferase that catalyze mono- and symmetric demethylation on arginine residues of histone or non-histone proteins in presence of S-adenosylmethionine (AdoMet or SAM) a cofactor responsible for donating the methyl group. PRMT5 is reported to be overexpressed in several human cancers. To identify compounds that inhibit the PRMT5 and decrease its activity, a TR-FRET based assay has been established. Time-resolved fluorescence resonance energy transfer (TR-FRET) HTS assays are homogeneous proximity assays where the interaction of two dye-labeled binding partners is detected by the energy transfer between a donor and an acceptor dye and the subsequent light emission by the acceptor dye. PRMT5 catalyzes Histone H4 peptide which is biotin tagged to the Lysine amino acid at carboxyl end, in presence of S-adenosyl-1-methionine (SAM) to methylate the peptide. The antibody specific to mono methylated H4 peptide (H4R3) with Ig conjugate binds to the methylated peptide, indirectly binding to the Europium lanthanide. SureLight Allophycocyanin-Streptavidin binds to the biotin tag of the peptide, therefore accepting the energy transferred from the Europium lanthanide. This energy transfer between Europium to SureLight Allophycocyanin is a direct measure of the activity/inhibition of the PRMT5 enzyme.
Assay buffer: 20 mM BICINE (pH 7.6), 25 mM NaCl, 2 mM DTT, 0.01% Tween-20 and 0.01% BSA.
The compound dilutions were prepared as 7.5% DMSO stock solutions in assay buffer. To 2 μL (7.5×) of test compound, 5 μL of PRMT5 enzyme prepared in assay buffer (Final concentration of 32 nM in 15 μL reaction volume) was added and allowed for 30 minutes pre-incubation time in a white polystyrene 384-well plate at room temperature. […] The plates were then read on Victor-3 with Excitation at 340 nm and Emissions collected at 615 and 665 nm in TR-FRET protocol. […]
On the technique in general: Time-resolved FRET reads energy transfer from a long-lived donor to a nearby acceptor.
As for `Cc1ccc(Cn2ccn(CC(O)CN3CCc4ccccc4C3)c2=O)cc1` (stereo not drawn) [Example 83, 1-(3-(3,4-dihydroisoquinolin-2(1H)-yl)-2-hydroxypropyl)-3-(4-methylbenzyl)-1,3-dihydro-2H-imidazol-2-one], the pIC50 was 6.30.
Compound `Cc1ccc(Cn2c(=O)n(CC(O)CN3CCc4ccccc4C3)c3ccccc32)cc1` (stereo not drawn) [Example 85, 1-(3-(3,4-Dihydroisoquinolin-2(1H)-yl)-2-hydroxypropyl)-3-(4-methylbenzyl)-1,3-dihydro-2H-benzo[d]imidazol-2-one] showed a pIC50 of 7.10.
Compound `Cc1ccccc1Cn1c(=O)n(CC(O)CN2CCc3ccccc3C2)c2ccccc21` (stereo not drawn) [Example 87, 1-(3-(3,4-Dihydroisoquinolin-2(1H)-yl)-2-hydroxypropyl)-3-(2-methylbenzyl)-1,3-dihydro-2H-benzo[d]imidazol-2-one] showed a negative logarithm of the IC50 (pIC50) of 7.40. Compared with the last compound, the pIC50 is 0.30 log units higher.

Values taken from US11365205B2 (Aurigene Discovery Technologies Limited, priority 2018, dated 2022).
